Among all 310,000 compounds or so, about 2,200 (0.71%) showed an effect of 50% or more. The effect is printed as a negative number. This is one part of the list.
target: human ether-à-go-go-related gene (hERG) potassium channel (human, UniProt Q12809); test: primary screen, population patch clamp on CHO cells stably expressing hERG
Sequence (Q12809 whole entry, looked up): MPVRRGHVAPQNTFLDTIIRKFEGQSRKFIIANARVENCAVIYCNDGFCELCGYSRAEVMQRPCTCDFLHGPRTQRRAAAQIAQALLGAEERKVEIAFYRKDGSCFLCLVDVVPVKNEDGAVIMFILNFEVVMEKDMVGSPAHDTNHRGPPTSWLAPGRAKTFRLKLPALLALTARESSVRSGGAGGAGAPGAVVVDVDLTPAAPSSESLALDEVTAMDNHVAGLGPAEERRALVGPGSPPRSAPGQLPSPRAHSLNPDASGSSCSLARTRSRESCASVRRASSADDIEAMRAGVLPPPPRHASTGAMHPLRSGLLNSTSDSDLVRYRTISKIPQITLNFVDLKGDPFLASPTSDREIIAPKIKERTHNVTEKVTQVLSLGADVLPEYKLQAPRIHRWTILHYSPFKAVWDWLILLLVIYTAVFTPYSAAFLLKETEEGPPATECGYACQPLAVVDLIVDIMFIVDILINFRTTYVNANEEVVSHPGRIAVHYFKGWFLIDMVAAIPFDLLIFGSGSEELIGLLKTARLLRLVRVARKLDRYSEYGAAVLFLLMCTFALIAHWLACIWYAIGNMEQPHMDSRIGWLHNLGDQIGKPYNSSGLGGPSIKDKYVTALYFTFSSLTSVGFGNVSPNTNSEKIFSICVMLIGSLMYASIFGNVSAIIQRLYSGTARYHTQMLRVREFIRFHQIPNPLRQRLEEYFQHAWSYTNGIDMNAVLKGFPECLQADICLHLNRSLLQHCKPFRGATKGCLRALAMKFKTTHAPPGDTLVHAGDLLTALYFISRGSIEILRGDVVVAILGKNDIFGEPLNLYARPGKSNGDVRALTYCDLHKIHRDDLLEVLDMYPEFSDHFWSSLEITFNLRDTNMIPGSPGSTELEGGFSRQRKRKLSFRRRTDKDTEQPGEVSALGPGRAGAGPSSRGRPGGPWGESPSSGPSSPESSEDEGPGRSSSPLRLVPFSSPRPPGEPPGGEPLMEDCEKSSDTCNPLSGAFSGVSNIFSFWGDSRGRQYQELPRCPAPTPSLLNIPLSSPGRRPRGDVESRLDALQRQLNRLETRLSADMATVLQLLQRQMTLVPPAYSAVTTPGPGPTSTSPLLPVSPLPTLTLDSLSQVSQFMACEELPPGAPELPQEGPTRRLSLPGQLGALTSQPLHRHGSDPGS

Compound	hERG current change (%, negative = inhibition) at 1uM [%]
CC(C)N(C(=O)CSc1nnc(CNc2ccc(F)cc2)o1)C(C)C	3.36
O=C(NC1CCCC1)C(c1cccnc1)N(C(=O)c1csnn1)C1CC1 (stereo not drawn)	3.78
Cn1ncc2c1ncn1nc(COc3ccc4ccccc4c3)nc21	7.58
Cn1c(C(=O)N[C@@H](C(=O)O)c2ccccc2)cc2cc(Cl)ccc21	17.7
COc1ccccc1C(CNC(=O)c1cccc(NS(=O)(=O)c2ccc(C)c(F)c2)c1)N(C)C (stereo not drawn)	-13.9
CCOC(=O)Cn1c(=NC(=O)c2nc3ccccc3s2)sc2cc(S(N)(=O)=O)ccc21	11.6
COc1ccc(/C=N/N=C2/SCC(=O)N2Cc2ccccc2)cc1	7.86
Cc1sc2c(c1C)c(=O)n(-c1ccccc1)c(=O)n2CC(=O)NCC1CCCO1 (stereo not drawn)	10.7
CCN(CC)S(=O)(=O)c1ccc(NC(=O)Cn2cnc3ccccc3c2=O)cc1	10.3
Cn1c(N/N=C/c2cccs2)cc(=O)n(C)c1=O	12.4
COC(=O)c1ccc(NC(=O)C(OC)c2ccccc2)cc1 (stereo not drawn)	13.3
COc1ccc(N(C(=O)Cc2cccs2)C(C(=O)NC2CCCCC2)c2cccn2C)cc1 (stereo not drawn)	9.18
COc1ccc(NC(=O)c2ccccc2N2C(=O)C3C4C=CC(C5CC45)C3C2=O)c(OC)c1 (stereo not drawn)	17.1
O=S(=O)(Nc1cccc(-n2cnnn2)c1)c1ccccc1C(F)(F)F	19.3
COc1ccc(NC(=O)N2CCCC(C(=O)NCCc3ccccc3)C2)cc1 (stereo not drawn)	14.5
Cc1cccc(NC(=O)CCc2ccc(C)o2)c1	7.2
CC(C)C/C=C1\CCc2c([nH]c3ccccc23)C1=O	18.6
Cc1ccc(S(=O)(=O)N2CCCCC2CCNC(=O)C(=O)NCc2ccco2)cc1 (stereo not drawn)	1.57
O=C(O)c1cc(N=Cc2c(O)c3ccccc3oc2=O)ccc1O	0.406
CCCCn1c(NC(=O)c2ccc(Br)o2)c(S(=O)(=O)c2ccccc2)c2nc3ccccc3nc21	3.4
C/C(=N\OC(=O)c1ccccc1)c1c(C)nc2cc(C)ccn12	4.35
Cc1ccc(SCc2c(C(=O)N/N=C/c3ccc4c(c3)OCO4)nnn2-c2nonc2N)cc1	8.33

Compound	hERG current change (%, negative = inhibition) at 1uM [%]
Cc1nc(SCC(=O)c2ccc(Cl)cc2)c([N+](=O)[O-])[nH]1	-2.06
Cc1ccnc(NS(=O)(=O)c2ccc(NC(=O)C3C4C=CC(C4)C3C(=O)O)cc2)n1 (stereo not drawn)	21.1
CC(c1ccccc1)N1C(=O)NC(NC(=O)C(C)(C)C)(C(F)(F)F)C1=O (stereo not drawn)	11
Cn1ncc(Br)c1C(=O)NC1CCCCC1	11.8
Cc1c(Cl)c(-c2n[nH]c(=S)n2-c2ccccc2)nn1C	11.8
C=CCOC(=O)/C(=C/c1cccnc1)NC(=O)c1ccccc1	-2.45
CN1CCN(c2ccc(Cl)cc2NC(=O)c2ccc([N+](=O)[O-])cc2)CC1	4.11
O=[N+]([O-])c1ccc(-c2cn(-c3ccccc3F)c(=S)[nH]2)cc1	-11.1
CCC(C)(C#CCN1CCCCC1)OCCC#N (stereo not drawn)	1.22
O=C(/C=C/c1ccco1)NC(=S)Nc1ccccc1N1CCOCC1	2.72
CC(C)CC(=O)Nc1ccc2ccccc2c1	14.8
O=C(COc1ccc(Br)cc1)NCCNC(=O)c1ccncc1	0.672
C=CCn1c(SCn2nnc3ccccc3c2=O)nnc1-c1ccc(Cl)cc1	-21.8
CNC(=O)N(O)C1N(/N=C/c2ccc(N(C)C)cc2)C(=S)SC1(C)C (stereo not drawn)	24.9
CC1CCCCN1CCCNC(=O)C1CCN(c2nnc(-n3cccc3)s2)CC1 (stereo not drawn)	6.55
CC1=CC(C)(C)N(C(=O)CSc2nnc(N)s2)c2ccccc21	7.05
Cc1cc(=O)n2[nH]c(C)c(-c3ccc(Cl)cc3)c2n1	9.06
CCOC(=O)c1c(NC(=O)CCS(=O)(=O)c2ccccc2)sc2c1CCN(C)C2.Cl	-9.18
COc1ccc(CCN2CC(C(=O)NCCc3ccc(F)cc3)CCC2=O)cc1 (stereo not drawn)	4.39
CCN(C(=O)CN1C(=O)S/C(=C\c2ccccc2OC)C1=O)C1CCS(=O)(=O)C1 (stereo not drawn)	11.1
O=c1c2cnn(-c3ccccc3)c2ncn1Cc1ccco1	8.66
Cc1cc(=O)oc2ccc(OCC(=O)N3CCc4ccccc43)cc12	2.34

Compound	hERG current change (%, negative = inhibition) at 1uM [%]
CC(OC(=O)c1cc2sccc2n1C)C(=O)NCc1ccco1 (stereo not drawn)	1.63
O=C1ON=C(c2ccccc2)/C1=C/c1ccc(OS(=O)(=O)c2ccccc2)cc1	13.9
Cc1ccc(/C=N/Nc2ccnc3cc(Cl)ccc23)c(C)c1	0.752
Nc1cc(C(=O)OCC(=O)NCc2ccc(F)cc2)ccc1Cl	9.24
CCOC(=O)c1c(NC(=O)c2ccn(CC)n2)sc2c1CCC2	8.99
CCN1C(=O)/C(=C/c2ccc(C)o2)N(C)C1=S	15.6
COc1ccc(NC(=O)CSc2nnc(C)c3ccccc23)cc1	12.9
C=CCN1C(=O)C(Cc2ccc(OC)cc2)S/C1=N\N=C\c1cccs1 (stereo not drawn)	14.5
Cc1ccc(OCCN(C)C(=O)C2CCC(=O)N(CCCN3CCCC3=O)C2)cc1 (stereo not drawn)	18.8
COc1cccc(N2C(=O)CN(Cc3cc(OC)c(OC)c(OC)c3)C2=S)c1	14.3
N#CCCN(Cc1ccccc1)C(=S)NC(=O)c1ccccc1	5.98
CCOC(=O)c1sc(NC(=O)CCN2CCCCCC2)c(C(=O)OCC)c1C	10.6
CCc1ccc2[nH]c(=O)c(CN(Cc3nnnn3C3CCCC3)C3CCCCC3)cc2c1	6.64
Cc1c(OCC(=O)N[C@@H](Cc2c[nH]c3ccccc23)C(=O)O)ccc2c1oc(=O)c1ccccc12	1.7
CN(C)C(=O)Oc1cccc([N+](C)(C)C)c1.[Br-]	5.36
O=C1NC(c2ccco2)Nc2sc3c(c21)CCN(Cc1ccccc1)C3 (stereo not drawn)	-0.668
CC(C)c1ccc(NC2CCCN(C(=O)c3ccccc3-c3ncc[nH]3)C2)cc1 (stereo not drawn)	1.4
Cc1cc(=O)c2cc3nc(-c4cccnc4)oc3c(Br)c2o1	14.1
COc1ccc(/C=N/NC(=O)OC(C)(C)C)cc1OC	3.01
Nc1ncc(CN2CCCC(C(=O)Nc3ccc(-c4ccco4)cc3)C2)cn1 (stereo not drawn)	2.16
Cc1ccc(OCC(=O)N2CCN(S(=O)(=O)c3ccccc3[N+](=O)[O-])CC2)cc1	8.69
N#CCCn1c(=S)[nH]c2ccccc21	14.2

Compound	hERG current change (%, negative = inhibition) at 1uM [%]
Cc1ccc(CCN2CC(C(=O)NC3CCCC3)CC2=O)cc1 (stereo not drawn)	10.7
CCc1c(C)c(C#N)c2nc3ccccc3n2c1NC	5.81
CCOc1ccc(CCNC(=O)COC(=O)c2cccnc2OCC)cc1OCC	7.08
CC(=O)OCC(=O)[C@H]1CC[C@H]2[C@@H]3CC[C@H]4C[C@H](O)CC[C@]4(C)[C@H]3C(=O)C[C@]12C	3.12
O=c1nc(-c2ccccc2)c2cc(Br)ccc2[nH]1	17.5
CCOC(=O)c1cnc(SCc2nc(N)nc(Nc3ccccc3OC)n2)nc1N	-4.13
COc1ccc([N+](=O)[O-])cc1NC(=O)Nc1cccc(Cl)c1	7.66
CSc1cccc(NS(=O)(=O)c2cc(Br)cnc2N)c1	2.74
S=C(Nc1ccccc1)N1CCCCCC1	9.2
COC(=O)C1=C(c2cc3ccccc3o2)C[C@@H]2CC[C@H]1N2C(=O)NCCO	12.6
CC1C=CCC2C(=O)N(c3ccc(OC(=O)c4ccco4)cc3)C(=O)C12 (stereo not drawn)	10.8
COc1ccccc1NC(=O)c1ccc2c(c1)OCO2	12.6
COc1ccc(NC(=O)c2sc3nc(N4CCOCC4)c4c(c3c2N)CC(C)(C)OC4)c(OC)c1	16.1
Cc1c(NC(=O)CSc2nc3ccccc3c(=O)n2C(C)C)c(=O)n(-c2ccccc2)n1C	6.03
Cc1ccc(-c2n[nH]c(=S)n2/N=C/c2cc3c(cc2[N+](=O)[O-])OCO3)cc1	15.1
O=c1c2ccccc2[nH]c(=S)n1CCCN1CCN(C2CCCCC2)CC1	-25.8
Cc1ccc(S(=O)(=O)N2CCN(C(=O)c3cc4c(s3)CCCC4)CC2)cc1	4.24
O=C(O)CC1S/C(=N/N=C/C2CC=CCC2)NC1=O (stereo not drawn)	9.66
Cc1ccc(N2C(N)=C(C#N)C(c3cccnc3)C3=C2CC(C)(C)CC3=O)cc1 (stereo not drawn)	10.9
COCCC(=O)N1CCC(Oc2ccc(C(=O)N3C[C@H]4CC[C@H]3C4)cc2)CC1	16.2
COc1ccc(NC(=O)CSc2nnc3ccc(-c4cccnc4)nn23)cc1	-9.61

From PMC4336329 (PLoS ONE, 2015)
